The values that follow come from paper PMC13034042.

Amino acid sequences for entries named in this document (tags omitted). A change or cut given only in a name is not applied to a line headed by its entry.
UniProt P14120: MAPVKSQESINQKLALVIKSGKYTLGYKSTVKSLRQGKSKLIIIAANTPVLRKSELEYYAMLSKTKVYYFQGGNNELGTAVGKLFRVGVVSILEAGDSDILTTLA

Test in all cases: two-hybrid; Y2H in reporter strain PJ69-4A; G4BD bait and G4AD prey from monocopy plasmids (ADH1 promoter); growth on SC-HLT (HIS3) and SC-ALT (ADE2) plates, 3 days at 30°C
Assay [1] has as its target T1, Rpl6a, Y2H bait (S. cerevisiae) (UniProt Q02326).
T1 sequence: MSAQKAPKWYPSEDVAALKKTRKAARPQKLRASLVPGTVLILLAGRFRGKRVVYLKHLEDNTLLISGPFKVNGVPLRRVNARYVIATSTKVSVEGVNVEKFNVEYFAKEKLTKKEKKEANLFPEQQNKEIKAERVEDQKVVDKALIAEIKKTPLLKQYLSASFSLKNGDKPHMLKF

The target in assay [2] is Gsp1.Q71L, Y2H bait (S. cerevisiae) (UniProt P32835).
The target in assay [3] is Rpl30, Y2H bait (S. cerevisiae) (UniProt P14120).

These are yes or no findings as the source states them, for the method shown. Some results given as binding are weak or reduced against the parent protein; the word gives no strength.

On to “Kap114.159C, Y2H prey (from UniProt P53067 159-1004) (domain or fragment)”, for which the binding result in assay [1] is listed as “binds”.
The same measure, in the same setting: in the case of “Kap114.75C, Y2H prey (from UniProt P53067 75-1004) (domain or fragment)” it was “binds”.

B1: Kap119, full length, Y2H prey (protein, UniProt P46970 1-1048)
chain: MDITELLQCFACTLDHNAAVRTNAETHLKNASKVPGFLGACLDIIAADEVPENIKLSASLYFKNKITYGWSAGARQGSNELLDSHVDPDEKPVVKDMLIKTMVSVSKTSPRCIRVLKSALTVIISEDYPSKKWGNLLPNSLELLANEDITVTYVGLLCLAEIFRTYRWKNNDERQDLEELILNYFPALLNYGANVLFQDGKYMNNEQIGELVKLIIKIYKFVSYHDLPFTLQRSESFTPWACFFVSIIQQPLPQEVLAISDIEVRSKNPWVKCKKWALANLYRLFQRYASTSLTRKFQYDEFKQMYCEEFLTQFLQVVFDQIEKWGTGQLWLSDECLYYILNFVEQCVVQKTTWKLVGPHYNVILQHVIFPLLKPTAETLEAFDNDPQEYINRNMDFWDVGYSPDLAALALLTTCVTKRGKTTLQPTLEFMVSTLQSAVGDYNNIMLDNALQIESCLRIFSSIIDRLITKDSPFASEMEKFILTYVLPFFKSQYGFLQSRVCDICSKLGSMDFKDPVITSTIYEGVMNCLNNSSNSLPVELTAALALQTFISDDQFNMKLSEHVVPTMQKLLSLSNDFESDVISGVMQDFVEQFAEQLQPFGVELMNTLVQQFLKLAIDLHETSNLDPDSFTNVDSIPDESDKQMAALGILSTTISILLSFENSPEILKNLEQSFYPAAEFILKNDIEDFYRECCEFVENSTFLLRDITPISWKILELIGECNRKPDSMVSYYLSDFMLALNNILIYGRNELKKNEFYTKIIFEIYQKAVTAEDNSLDDLRVVFDLSQELVLALDDSLPQQYRERLLADVVGSILTQKNELKTNVVFSVTAFNVVISNMITEPLITLQYLKQQGCLEIFFQTWITDYIPNYKRCYDIKLSVLALLKIILKLESNDYSVLNLENLVPQLGSIVTQLASRLPTALRQLANQRKEFSSSGFEEDTKWDENFLDVGDDDENDDEGDLTEKYLELIKNRADSLDFVDGYDAKETFDDLEEDPLTGSILDTVDVYKVFKESIANLQHVDSNRYQGILRHLTPADQELFMGIMNA
With B1, in assay [2], the binding entry is given as “binds weakly”.

B2: Kap119.289C, Y2H prey (domain or fragment, UniProt P46970 289-1048)
chain: ASTSLTRKFQYDEFKQMYCEEFLTQFLQVVFDQIEKWGTGQLWLSDECLYYILNFVEQCVVQKTTWKLVGPHYNVILQHVIFPLLKPTAETLEAFDNDPQEYINRNMDFWDVGYSPDLAALALLTTCVTKRGKTTLQPTLEFMVSTLQSAVGDYNNIMLDNALQIESCLRIFSSIIDRLITKDSPFASEMEKFILTYVLPFFKSQYGFLQSRVCDICSKLGSMDFKDPVITSTIYEGVMNCLNNSSNSLPVELTAALALQTFISDDQFNMKLSEHVVPTMQKLLSLSNDFESDVISGVMQDFVEQFAEQLQPFGVELMNTLVQQFLKLAIDLHETSNLDPDSFTNVDSIPDESDKQMAALGILSTTISILLSFENSPEILKNLEQSFYPAAEFILKNDIEDFYRECCEFVENSTFLLRDITPISWKILELIGECNRKPDSMVSYYLSDFMLALNNILIYGRNELKKNEFYTKIIFEIYQKAVTAEDNSLDDLRVVFDLSQELVLALDDSLPQQYRERLLADVVGSILTQKNELKTNVVFSVTAFNVVISNMITEPLITLQYLKQQGCLEIFFQTWITDYIPNYKRCYDIKLSVLALLKIILKLESNDYSVLNLENLVPQLGSIVTQLASRLPTALRQLANQRKEFSSSGFEEDTKWDENFLDVGDDDENDDEGDLTEKYLELIKNRADSLDFVDGYDAKETFDDLEEDPLTGSILDTVDVYKVFKESIANLQHVDSNRYQGILRHLTPADQELFMGIMNA
For the molecule B2, in assay [3], the binding entry was “binds”.

B3: Kap121, full length, Y2H prey (protein, UniProt P32337 1-1089)
chain: MSALPEEVNRTLLQIVQAFASPDNQIRSVAEKALSEEWITENNIEYLLTFLAEQAAFSQDTTVAALSAVLFRKLALKAPPSSKLMIMSKNITHIRKEVLAQIRSSLLKGFLSERADSIRHKLSDAIAECVQDDLPAWPELLQALIESLKSGNPNFRESSFRILTTVPYLITAVDINSILPIFQSGFTDASDNVKIAAVTAFVGYFKQLPKSEWSKLGILLPSLLNSLPRFLDDGKDDALASVFESLIELVELAPKLFKDMFDQIIQFTDMVIKNKDLEPPARTTALELLTVFSENAPQMCKSNQNYGQTLVMVTLIMMTEVSIDDDDAAEWIESDDTDDEEEVTYDHARQALDRVALKLGGEYLAAPLFQYLQQMITSTEWRERFAAMMALSSAAEGCADVLIGEIPKILDMVIPLINDPHPRVQYGCCNVLGQISTDFSPFIQRTAHDRILPALISKLTSECTSRVQTHAAAALVNFSEFASKDILEPYLDSLLTNLLVLLQSNKLYVQEQALTTIAFIAEAAKNKFIKYYDTLMPLLLNVLKVNNKDNSVLKGKCMECATLIGFAVGKEKFHEHSQELISILVALQNSDIDEDDALRSYLEQSWSRICRILGDDFVPLLPIVIPPLLITAKATQDVGLIEEEEAANFQQYPDWDVVQVQGKHIAIHTSVLDDKVSAMELLQSYATLLRGQFAVYVKEVMEEIALPSLDFYLHDGVRAAGATLIPILLSCLLAATGTQNEELVLLWHKASSKLIGGLMSEPMPEITQVYHNSLVNGIKVMGDNCLSEDQLAAFTKGVSANLTDTYERMQDRHGDGDEYNENIDEEEDFTDEDLLDEINKSIAAVLKTTNGHYLKNLENIWPMINTFLLDNEPILVIFALVVIGDLIQYGGEQTASMKNAFIPKVTECLISPDARIRQAASYIIGVCAQYAPSTYADVCIPTLDTLVQIVDFPGSKLEENRSSTENASAAIAKILYAYNSNIPNVDTYTANWFKTLPTITDKEAASFNYQFLSQLIENNSPIVCAQSNISAVVDSVIQALNERSLTEREGQTVISSVKKLLGFLPSSDAMAIFNRYPADIMEKVHKWFA
As to B3, the binding result in assay [2] is given as “binds”.

B4: Kap119.328C, Y2H prey (domain or fragment, UniProt P46970 328-1048)
chain: GQLWLSDECLYYILNFVEQCVVQKTTWKLVGPHYNVILQHVIFPLLKPTAETLEAFDNDPQEYINRNMDFWDVGYSPDLAALALLTTCVTKRGKTTLQPTLEFMVSTLQSAVGDYNNIMLDNALQIESCLRIFSSIIDRLITKDSPFASEMEKFILTYVLPFFKSQYGFLQSRVCDICSKLGSMDFKDPVITSTIYEGVMNCLNNSSNSLPVELTAALALQTFISDDQFNMKLSEHVVPTMQKLLSLSNDFESDVISGVMQDFVEQFAEQLQPFGVELMNTLVQQFLKLAIDLHETSNLDPDSFTNVDSIPDESDKQMAALGILSTTISILLSFENSPEILKNLEQSFYPAAEFILKNDIEDFYRECCEFVENSTFLLRDITPISWKILELIGECNRKPDSMVSYYLSDFMLALNNILIYGRNELKKNEFYTKIIFEIYQKAVTAEDNSLDDLRVVFDLSQELVLALDDSLPQQYRERLLADVVGSILTQKNELKTNVVFSVTAFNVVISNMITEPLITLQYLKQQGCLEIFFQTWITDYIPNYKRCYDIKLSVLALLKIILKLESNDYSVLNLENLVPQLGSIVTQLASRLPTALRQLANQRKEFSSSGFEEDTKWDENFLDVGDDDENDDEGDLTEKYLELIKNRADSLDFVDGYDAKETFDDLEEDPLTGSILDTVDVYKVFKESIANLQHVDSNRYQGILRHLTPADQELFMGIMNA
Turning to B4, in assay [3], the binding result is “binds”.
